According to patent US6156316A, “Oncogene fusion protein peptide vaccines” (Sloan-Kettering Institute for Cancer Research, priority 1995, dated 2000):
Where two headings read alike, the source gives them in different places. At least one peptide structure holds a part that was inferred or is arguable (an end, a ring closure or a residue). No end group written: not given here.

Key:
Design in all cases: species or system human
[1] = target: HLA A11; assay: MHC binding assay, purified HLA A11
[2] = target: HLA A24; assay: MHC binding assay, purified HLA A24; conditions: Table 1, CML peptides; 50% inhibition of standard peptide binding; read-out: AFFINITY (nM) A24
[3] = target: HLA B27; assay: MHC binding assay, purified HLA B27; conditions: Table 1, CML peptides; 50% inhibition of standard peptide binding; read-out: AFFINITY (nM) B27
[4] = target: HLA B8; assay: MHC binding assay, purified HLA B8; conditions: Table 1, CML peptides; 50% inhibition of standard peptide binding; read-out: AFFINITY (nM) B8
[5] = Table 1, CML peptides, 50% inhibition of standard peptide binding, read-out: AFFINITY (nM) A11

Sequence | IC50 [1, 5] [nM] | further results
INKEEALQR | > 30000 | –
KALQRPVSDF | – | IC50 [2]: > 30000 nM
NKEEALQR | – | IC50 [3]: > 30000 nM
FKQSSKALQR | 5000 | –
GFKQSSKAL [GFKQSSKAL] | – | IC50 [4]: 190 nM
HSATGFKQSSK | 125 | –
GFKQSSKALQR | 2150 | –
SATGFKQSSK | 3530 | –
ATGFKQSSK | 97 | IC50 ([1]; text b187, read-out: concentration for 50% inhibition, HLA A11): < 100 nM
EALQRPVASDF | – | IC50 [2]: > 30000 nM
TGFKQSSK | > 30000 | –
TINKEEALQR | > 30000 | –
